From ChEMBL document CHEMBL1130307, “Inhibition of Matrix Metalloproteinases: An examination of the S1 pocket” (Bioorg Med Chem Lett, 1997)
pIC50: −log10 of the molar value.

Key:
[1] = target: T1, Interstitial collagenase (Homo sapiens, UniProt P03956)
T1 sequence (P03956 whole entry): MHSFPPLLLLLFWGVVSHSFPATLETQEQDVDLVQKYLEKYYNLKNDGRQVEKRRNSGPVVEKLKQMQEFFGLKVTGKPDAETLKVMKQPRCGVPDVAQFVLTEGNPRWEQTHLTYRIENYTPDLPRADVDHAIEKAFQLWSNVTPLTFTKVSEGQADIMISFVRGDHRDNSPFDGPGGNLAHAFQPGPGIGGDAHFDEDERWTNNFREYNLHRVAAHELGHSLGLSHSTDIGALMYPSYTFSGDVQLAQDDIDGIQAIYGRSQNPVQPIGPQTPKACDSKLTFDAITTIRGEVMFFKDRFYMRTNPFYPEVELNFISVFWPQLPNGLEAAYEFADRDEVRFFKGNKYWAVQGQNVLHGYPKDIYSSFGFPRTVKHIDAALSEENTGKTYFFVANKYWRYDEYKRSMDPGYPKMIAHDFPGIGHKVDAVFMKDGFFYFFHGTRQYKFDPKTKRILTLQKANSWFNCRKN

[2] = target: 72 kDa type IV collagenase (Homo sapiens, UniProt P08253)
Sequence of 72 kDa type IV collagenase (P08253 whole entry): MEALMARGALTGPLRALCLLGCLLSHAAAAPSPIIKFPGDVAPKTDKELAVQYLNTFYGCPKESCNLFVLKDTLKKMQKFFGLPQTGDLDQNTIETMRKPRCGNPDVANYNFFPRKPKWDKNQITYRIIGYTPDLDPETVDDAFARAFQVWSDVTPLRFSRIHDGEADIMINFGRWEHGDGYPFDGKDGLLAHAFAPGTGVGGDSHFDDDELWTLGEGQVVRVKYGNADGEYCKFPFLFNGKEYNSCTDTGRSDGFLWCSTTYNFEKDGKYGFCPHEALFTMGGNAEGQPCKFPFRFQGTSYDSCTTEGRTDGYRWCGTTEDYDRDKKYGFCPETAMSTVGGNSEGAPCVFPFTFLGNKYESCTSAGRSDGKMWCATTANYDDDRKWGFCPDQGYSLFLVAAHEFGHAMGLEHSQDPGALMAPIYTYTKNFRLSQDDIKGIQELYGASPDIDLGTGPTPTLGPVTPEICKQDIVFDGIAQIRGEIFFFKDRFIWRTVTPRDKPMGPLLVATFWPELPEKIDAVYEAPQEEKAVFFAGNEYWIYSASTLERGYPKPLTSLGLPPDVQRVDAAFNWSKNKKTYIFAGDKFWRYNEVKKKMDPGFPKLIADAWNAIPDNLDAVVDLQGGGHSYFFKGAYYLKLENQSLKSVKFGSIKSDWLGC

[3] = target: T1, Interstitial collagenase; remark: listed apart in the source
[4] = target: T2, Matrilysin (Homo sapiens, UniProt P09237)
T2 sequence (P09237 whole entry): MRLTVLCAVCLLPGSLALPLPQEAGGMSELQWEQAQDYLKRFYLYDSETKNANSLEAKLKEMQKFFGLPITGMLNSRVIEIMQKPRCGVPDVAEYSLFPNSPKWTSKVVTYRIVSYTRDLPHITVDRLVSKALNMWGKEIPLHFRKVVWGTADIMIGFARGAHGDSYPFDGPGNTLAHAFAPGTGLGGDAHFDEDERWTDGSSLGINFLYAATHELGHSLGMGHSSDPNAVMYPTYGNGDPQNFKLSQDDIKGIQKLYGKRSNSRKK

Structure (SMILES) | pIC50 [1] | pIC50 [2] | pIC50 [3] | pIC50 [4]
CNC(=O)[C@@H](NC(=O)[C@H](CCCCCCCCCCCCCCO)CC(=O)NO)C(C)(C)C | 6.52 | 9.30 | – | –
CCCCCCCCCCCCCCC[C@H](CC(=O)O)C(=O)N[C@H](C(=O)NC)C(C)(C)C | – | 7.05 | 5.10 | –
CCCCCCCC[C@H](CC(=O)NO)C(=O)N[C@H](C(=O)NC)C(C)(C)C | 7.00 | 9.15 | – | –
CCCCCCCCCCCCC[C@H](CC(=O)NO)C(=O)N[C@H](C(=O)NC)C(C)(C)C | 5.52 | 8.52 | – | –
CCCCCCCC[C@H](CC(=O)O)C(=O)N[C@H](C(=O)NC)C(C)(C)C | – | 6.05 | 4.70 | –
CCCCCCCCCCCCCC[C@H](CC(=O)O)C(=O)N[C@H](C(=O)NC)C(C)(C)C | – | 7.30 | – | –
CCCCCCCCCCCCC[C@H](CC(=O)O)C(=O)N[C@H](C(=O)NC)C(C)(C)C | – | 7.00 | 5.30 | –
CNC(=O)[C@H](Cc1ccccc1)NC(=O)[C@H](CCCCCOc1ccccc1)CC(=O)NO | – | 9.51 | – | –
CCCCCCCCCCCCCCCC[C@H](CC(=O)NO)C(=O)N[C@H](C(=O)NC)C(C)(C)C | 5.30 | 9.22 | – | 5.30
CCCCCCCCC[C@H](CC(=O)NO)C(=O)N[C@H](C(=O)NC)C(C)(C)C | – | > 9.82 | – | –
CCCCCCCCCCCCCCCC[C@H](CC(=O)O)C(=O)N[C@H](C(=O)NC)C(C)(C)C | – | 7.52 | – | –
CCCCCCCCCCCCCC[C@H](CC(=O)NO)C(=O)N[C@H](C(=O)NC)C(C)(C)C | 5.52 | 9.10 | – | –
